Assay results published in patent US4696920A, “Certain 2-substituted 1,3-propylidenediphosphonate derivatives, pharmaceutical compositions containing them and their use as antihypertensive agents” (priority 1984, dated 1987).
At least one read-out could not be matched to a standard name with certainty.

tested on: blood pressure in hypertensive rats; assay: Oral hypotensive activity in hypertensive rats (tail cuff); format: in vivo, rat (spontaneously hypertensive; conditions: conscious SHR, 2 hours post dose, dose not given
Procedure: Some selected compounds were given orally to conscious SHR rats and blood pressure was monitored using the tail cuff method. A marked and sustained hypotensive activity was measured in all treated rats. Results are given 2 hours post dose (Table 5). These studies illustrate the obvious potential use of orally administered 1,3-diphosphonates for the clinical treatment of hypertension in man.

SMILES | Decrease in blood pressure (% pretest value)
CCCCOP(=O)(CC(CCOc1ccc(Br)cc1)CP(=O)(OCCCC)OCCCC)OCCCC [Compound 91] | 49 % pretest value
CCCCCC(CP(=O)(OCCCC)OCCCC)CP(=O)(OCCCC)OCCCC [Compound 66] | 23 % pretest value
CCCCOP(=O)(CC(CCCOc1ccccc1)CP(=O)(OCCCC)OCCCC)OCCCC [Compound 80] | 32 % pretest value
CCCCOP(=O)(CC(Cc1ccc(CN2CCN(c3ccccc3)CC2)cc1)CP(=O)(OCCCC)OCCCC)OCCCC [Compound 104] | 10 % pretest value
CC(C)OP(=O)(CC(CCCc1ccccc1)CP(=O)(OC(C)C)OC(C)C)OC(C)C [Compound 56] | 3 % pretest value
CCCCOP(=O)(CC(Cc1cc(OC)c(OC)c(OC)c1)CP(=O)(OCCCC)OCCCC)OCCCC [Compound 82] | 11 % pretest value
CCCOP(=O)(CC(CCOc1ccccc1)CP(=O)(OCCC)OCCC)OCCC [Compound 52] | 17 % pretest value
CCCCOP(=O)(CC(CCCc1ccccc1)CP(=O)(OCCCC)OCCCC)OCCCC [Compound 75, Tetrabutyl 2-(3-phenylpropyl)-1,3-propylidenediphosphonate] | 37-41 % pretest value
COC(=O)C1=C(C)NC(C)=C(C(=O)OC)C1c1ccccc1[N+](=O)[O-] [Nifedipine, reference compound] | 47 % pretest value
CCCCOP(=O)(CC(CCOc1ccccc1)CP(=O)(OCCCC)OCCCC)OCCCC [Compound 79, Tetrabutyl 2-(2-phenoxyethyl)-1,3-propylidenediphosphonate] | 37-50 % pretest value
CCCCOP(=O)(CC(CCc1ccccc1)CP(=O)(OCCCC)OCCCC)OCCCC [Compound 74] | 12 % pretest value
CCCCOP(=O)(CC(Cc1cccc2ccccc12)CP(=O)(OCCCC)OCCCC)OCCCC [Compound 83] | 15 % pretest value
CCCCOP(=O)(CC(CCOc1ccc(OC)cc1)CP(=O)(OCCCC)OCCCC)OCCCC [Compound 92] | 48 % pretest value
CCCCOP(=O)(CC(CCCc1ccc([N+](=O)[O-])cc1[N+](=O)[O-])CP(=O)(OCCCC)OCCCC)OCCCC [Compound 98] | 38 % pretest value
COc1ccc(CCN(C)CCCC(C#N)(c2ccc(OC)c(OC)c2)C(C)C)cc1OC (centres unmarked) [Verapamil] | 57 % pretest value
CCOP(=O)(CC(CCOc1ccc(-c2ccccc2)cc1)CP(=O)(OCC)OCC)OCC [Compound 44] | 14 % pretest value
CCCOP(=O)(CC(CCCc1ccccc1)CP(=O)(OCCC)OCCC)OCCC [Compound 50] | 8 % pretest value
CCCCOP(=O)(CC(CCOc1ccc(F)cc1)CP(=O)(OCCCC)OCCCC)OCCCC [Compound 89] | 44 % pretest value
CCCCOP(=O)(CC(CCOc1cccc(C(F)(F)F)c1)CP(=O)(OCCCC)OCCCC)OCCCC [Compound 93] | 62 % pretest value
CCCCOP(=O)(CC(CCOc1ccc(Cl)cc1)CP(=O)(OCCCC)OCCCC)OCCCC [Compound 90] | 55 % pretest value
